Experimental findings from PubChem BioAssay AID1745853 (National Center for Advancing Translational Sciences (NCATS), 2022) are described below.

Holding throughout (assay): Primary Screen for Target Class Profiling of Small Molecule Inhibitors of Methyltransferases
Assay [1] addresses Glycine N-methyltransferase (Homo sapiens) (UniProt Q14749). The note with it: purified enzyme, MTase-Glo SAH luminescence; measured here: GNMT inhibition; at 40 µM; stronger effect = lower value. A digest of the protocol: (§1)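 Each enzyme was assayed with SAM and its substrate. SAH formation detected by MTase-Glo luminescence; single-point 40 uM screen[…].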
The target of assay [2] is Guanidinoacetate N-methyltransferase (Homo sapiens) (UniProt Q14353). The settings on record: purified enzyme, MTase-Glo SAH luminescence; measured here: GAMT inhibition; at 40 µM; stronger effect = lower value. The procedure, abridged:
as §1

Assay [3] has as its target Histamine N-methyltransferase (Homo sapiens) (UniProt P50135). The note with it: purified enzyme, MTase-Glo SAH luminescence; measured here: HNMT inhibition; at 40 µM; stronger effect = lower value. A digest of the protocol:
as §1

For assay [4], the target named is Nicotinamide N-methyltransferase (Homo sapiens) (UniProt P40261). The settings on record: purified enzyme, MTase-Glo SAH luminescence; measured here: NNMT inhibition; at 40 µM; stronger effect = lower value. A digest of the protocol: as §1
Assay [5] addresses Phenylethanolamine N-methyltransferase (Homo sapiens) (UniProt P11086). The settings on record: purified enzyme, MTase-Glo SAH luminescence; measured here: PNMT inhibition; at 40 µM; stronger effect = lower value. The procedure, abridged: as §1

The list shows a part of the results. Shown are side measurements of this screen, not its main read-out; they come without a call.
% is scaled to controls: 0 for no effect and ±100 for the full control effect.

In the case of `Fc1cnc(N2CCCC(OCc3cccnc3)C2)nc1N1CCOCC1` (configuration not stated), the activity change, negative = inhibition in assay [1] is -7.35%; in assay [2], -9.9%; in assay [3] it was -2.1%; in assay [4], -15.5%; in assay [5] it was -10.3%.
With `O=C1C[C@@]2(C(=O)N1)C(=O)N(Cc1ccc(Br)cc1F)C(=O)c1cccn12`, the activity change, negative = inhibition is -5.4% in assay [1]; 2.27% in assay [2]; 3.92% in assay [3]; -14.7% in assay [4]; -2.39% in assay [5].
The like results for `O=c1[nH]nc2n1CCN(C1CCOCC1)CC2` were, in that order, -4.8%, -1.86%, -0.074%, -5.35% and -3.52%.
On to `O=C(NCc1ccco1)NC1CCc2nnc(C3CC3)n2CC1` (configuration not stated), for which the activity change, negative = inhibition in assay [1] is 3.52%; in assay [2] it was -1.6%; in assay [3], 0.677%; in assay [4], -4.56%; in assay [5], 1.72%.
Turning to `CC(C)Oc1ccc(CN2C(=O)c3cc4occc4n3CC2(C)C(=O)NC2CCCCC2)cc1` (configuration not stated), the activity change, negative = inhibition in assay [1] was -8.66%; in assay [2], 5.88%; in assay [3], -3.86%; in assay [4] it was -6.93%; in assay [5], -4.67%.
As for `Cc1nc2sccn2c(=O)c1CCN1CCC(=C(c2ccc(F)cc2)c2ccc(F)cc2)CC1`, the activity change, negative = inhibition in assay [1] is -3.28%; in assay [2], 9.23%; in assay [3] it was -6.51%; in assay [4], -37.4%; in assay [5], 4.6%.
For `CN1CCN(Cc2ccc(-c3cnc4[nH]cc(-c5ccc6[nH]ccc6c5)c4c3)cc2)CC1`, in that order: -29.7%, 2.87%, -48.8%, -32.4% and -19.9%.
On to `COc1cccc(S(=O)(=O)N2CCC3(CCCCO3)CC2)c1`, for which the activity change, negative = inhibition is -11.7% in assay [1]; -11.4% in assay [2]; 1.61% in assay [3]; -15.1% in assay [4]; -8.15% in assay [5].
Regarding `COCCCNC(=O)c1cc2n(n1)CC(C)(C(=O)NCc1ccccc1)N(C)C2=O` (configuration not stated), the activity change, negative = inhibition was -1.84% in assay [1]; -1.55% in assay [2]; -0.055% in assay [3]; -3.04% in assay [4]; -4.83% in assay [5].
With `CCC(C)/C=C(C)/C=C/C1=CC2=C(Cl)C(=O)C(C)(OC(C)=O)C(=O)C2=CN1CCCCC(N)C(=O)O` (configuration not stated), the activity change, negative = inhibition was -0.107% in assay [1]; -0.916% in assay [2]; -2.02% in assay [3]; -13.1% in assay [4]; -0.008% in assay [5].
Take `O=C(c1cccs1)N1CCc2[nH]nc(-c3cccc(F)c3)c2C1`: the activity change, negative = inhibition in assay [1] is -14.3%; in assay [2] it was -2.4%; in assay [3], -6.95%; in assay [4], -20.8%; in assay [5], -4.36%.
Turning to `CC(OC1OCCN(Cc2n[nH]c(=O)[nH]2)C1c1ccc(F)cc1)c1cc(C(F)(F)F)cc(C(F)(F)F)c1` (configuration not stated), the activity change, negative = inhibition in assay [1] is -0.146%; in assay [3], 11.8%.
Regarding `Cc1ccccc1CNC(=O)C1(C)Cc2ccccc2C(=O)N1Cc1cc(F)cc(F)c1` (configuration not stated), the activity change, negative = inhibition in assay [1] is 13.3%; in assay [2], 0%; in assay [3], 11.9%; in assay [4] it was 2.98%; in assay [5] it was 9.22%.
For the molecule `CCN1CCN(C(=O)C2CCCN(Cc3ccncc3)CCC(=O)NCC2)CC1` (configuration not stated), the activity change, negative = inhibition in assay [1] is -2.73%; in assay [2], -1.88%; in assay [3] it was -1.49%; in assay [4], -0.48%; in assay [5], 2.79%.
As for `COc1ccc(C2(C(=O)N3CCC[C@H]3c3nc(-c4ccccc4Cl)no3)CC2)cc1`, the activity change, negative = inhibition in assay [1] is -5.83%; in assay [2] it was -5.86%; in assay [3], -5.5%; in assay [4] it was -12.7%; in assay [5] it was -5.87%.
Take `COc1ccc(C(=O)N2CCC(N3Cc4cnc(C)n4C3=O)CC2)cc1`: the activity change, negative = inhibition was -6.03% in assay [1]; -6.49% in assay [2]; -2.83% in assay [3]; -12.3% in assay [4]; -9.22% in assay [5].
In the case of `CCOc1ccc(CCN2C(=O)c3cc4ccccc4n3CC2(C)C(=O)NCCC(C)C)cc1OCC` (configuration not stated), the activity change, negative = inhibition in assay [1] was 2.34%; in assay [2], 4.54%; in assay [3], -0.593%; in assay [4] it was -2.97%; in assay [5] it was -2.54%.
